Assay results from a compilation of properties of binary mixtures (doi:10.1021/acs.jced.0c00801).
Some of these densities may be calculated back from excess volumes.

Assay: xn = mol fraction of the nth substance listed
Settings: 101 kPa

CC[n+]1ccn(C)c1.N#C[S-] + CCO
mass density [kg/m3]
Settings | 283.15 K | 293.15 K | 303.15 K | 313.15 K | 323.15 K
x1 = 0.0504 | 847.8 | 839.7 | – | – | 815.1
x1 = 0.1001 | 884.2 | 876.4 | 868.7 | 860.9 | 853
x1 = 0.2012 | 942.9 | 935.6 | – | 921 | 913.7
x1 = 0.3003 | 985.3 | 978.3 | 971.4 | 964.4 | 957.5
x1 = 0.3945 | 1018.1 | 1011.4 | 1004.7 | 998 | 991.3
x1 = 0.5007 | 1047.5 | 1041 | 1034.4 | 1027.9 | 1021.5
x1 = 0.6016 | 1069.4 | 1063.4 | 1057.4 | – | 1045
x1 = 0.7018 | 1087.2 | 1080.9 | 1074.6 | – | –
x1 = 0.8045 | – | 1095.9 | 1089.6 | 1083.5 | 1077.4
x1 = 0.8971 | – | – | 1100.7 | – | 1088.6
x1 = 0.951 | 1119.2 | 1113 | – | 1100.8 | –
x1 = 1 | 1124.5 | 1118.3 | 1112.2 | – | 1100.2

CCO + CC[n+]1ccn(C)c1.N#C[S-]
x2 = 0
Settings | mass density [kg/m3]
283.15 K | 798
313.15 K | 772.1
323.15 K | 763.2
